Measured values from the supplement of paper PMC4604168 (melanoma cell lines).
Some of the results follow. Most values come without repeats; read them as rough.

Key:
Test in all cases: cell count relative to DMSO control; melanoma cells; higher = more viable cells
Details in all cases: library dose: low library concentration; 72 h
MZ2-MEL = test system: MZ2-MEL
MeWo = test system: MeWo
RPMI7951 = test system: RPMI7951
RVH-421 = test system: RVH-421
SkMel28 = test system: SkMel28
SkMel2 = test system: SkMel2
SkMel30 = test system: SkMel30
UACC62 = test system: UACC62
WM115 = test system: WM115
WM1716 = test system: WM1716
WM1745 = test system: WM1745
WM3526 = test system: WM3526
WM3619 = test system: WM3619
WM451Lu = test system: WM451Lu
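Also: cell number obtained by counting DAPI-stained nuclei in high-throughput microscope images with image analysis software, screen run in 1,536-well plates.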

SMILES	cell count (MZ2-MEL)	cell count (MeWo)	cell count (RPMI7951)	cell count (RVH-421)	cell count (SkMel28)	cell count (SkMel2)	cell count (SkMel30)	cell count (UACC62)	cell count (WM115)	cell count (WM1716)	cell count (WM1745)	cell count (WM3526)	cell count (WM3619)	cell count (WM451Lu)
Cc1cc(Nc2cc(N3CCN(C)CC3)nc(Sc3ccc(NC(=O)C4CC4)cc3)n2)n[nH]1 [Tozasertib] + Cn1c(Nc2ccc(C(F)(F)F)cc2)nc2cc(Oc3ccnc(-c4ncc(C(F)(F)F)[nH]4)c3)ccc21 [CHIR265] (first compound 0.006 µM, partner dose 0.08 µM)	69.1%	67.4%	55.9%	70.3%	40.2%	71.6%	50.2%	51.3%	44.2%	61.5%	57.8%	48.5%	62.1%	102%
CC[C@]1(O)C[C@H]2CN(CCc3c([nH]c4ccccc34)[C@@](C(=O)OC)(c3cc4c(cc3OC)N(C=O)[C@H]3[C@@](O)(C(=O)OC)[C@H](OC(C)=O)[C@]5(CC)C=CCN6CC[C@]43[C@@H]65)C2)C1 [vincristine] + C#Cc1cccc(Nc2ncnc3cc(OCCOC)c(OCCOC)cc23)c1 [erlotinib] (first compound 0.0001 µM, partner dose 0.8 µM)	57.5%	52.8%	46.5%	76.8%	56.2%	53.7%	52.3%	34.3%	42.1%	42.6%	59.5%	61.5%	41.7%	49.1%
CC[C@]1(O)C[C@H]2CN(CCc3c([nH]c4ccccc34)[C@@](C(=O)OC)(c3cc4c(cc3OC)N(C=O)[C@H]3[C@@](O)(C(=O)OC)[C@H](OC(C)=O)[C@]5(CC)C=CCN6CC[C@]43[C@@H]65)C2)C1 [vincristine] + Cn1nnc2c(C(N)=O)ncn2c1=O [temozolomide] (first compound 0.0001 µM, partner dose 2 µM)	97.4%	69.3%	61.6%	67.4%	69.7%	106%	47.8%	46.3%	50.7%	42.9%	94%	66.1%	59.9%	52.8%
CC[C@]1(O)C[C@H]2CN(CCc3c([nH]c4ccccc34)[C@@](C(=O)OC)(c3cc4c(cc3OC)N(C=O)[C@H]3[C@@](O)(C(=O)OC)[C@H](OC(C)=O)[C@]5(CC)C=CCN6CC[C@]43[C@@H]65)C2)C1 [vincristine] + Cc1cn(-c2cc(NC(=O)c3ccc(C)c(Nc4nccc(-c5cccnc5)n4)c3)cc(C(F)(F)F)c2)cn1 [nilotinib] (first compound 0.0001 µM, partner dose 0.2 µM)	98.8%	71.4%	65.9%	63.8%	49.7%	80.9%	60.8%	52.5%	53.1%	39.8%	69%	68.8%	39.5%	44.2%
Cc1cc(Nc2cc(N3CCN(C)CC3)nc(Sc3ccc(NC(=O)C4CC4)cc3)n2)n[nH]1 [Tozasertib] + CN(c1ncccc1CNc1nc(Nc2ccc3c(c2)CC(=O)N3)ncc1C(F)(F)F)S(C)(=O)=O [PF562271] (first compound 0.006 µM, partner dose 0.08 µM)	92.2%	90.2%	75.9%	102%	92.4%	92.5%	93.9%	93%	72.3%	81.3%	81.5%	92.9%	101%	78.2%
Cc1cc(Nc2cc(N3CCN(C)CC3)nc(Sc3ccc(NC(=O)C4CC4)cc3)n2)n[nH]1 [Tozasertib] + CCN(CC)CCNC(=O)c1c(C)[nH]c(/C=C2\C(=O)Nc3ccc(F)cc32)c1C [sunitinib] (first compound 0.006 µM, partner dose 0.4 µM)	95.8%	90.4%	102%	97.8%	99.9%	102%	73.5%	86.4%	104%	105%	73.4%	96.4%	113%	96.8%
N#CC[C@H](C1CCCC1)n1cc(-c2ncnc3[nH]ccc23)cn1 [ruxolitinib] + Cn1c(Nc2ccc(C(F)(F)F)cc2)nc2cc(Oc3ccnc(-c4ncc(C(F)(F)F)[nH]4)c3)ccc21 [CHIR265] (first compound 1 µM, partner dose 0.08 µM)	92.8%	89%	72.1%	65.7%	101%	91.9%	65.7%	98.5%	71.9%	82.5%	81.6%	70.7%	94%	83%
CC[C@]1(O)C[C@H]2CN(CCc3c([nH]c4ccccc34)[C@@](C(=O)OC)(c3cc4c(cc3OC)N(C=O)[C@H]3[C@@](O)(C(=O)OC)[C@H](OC(C)=O)[C@]5(CC)C=CCN6CC[C@]43[C@@H]65)C2)C1 [vincristine] + Nc1nc(F)nc2c1ncn2[C@@H]1O[C@H](CO)[C@@H](O)[C@@H]1O [fludarabine] (first compound 0.0001 µM, partner dose 0.2 µM)	92.1%	24.7%	65.2%	64%	62.1%	10.8%	14.8%	45.8%	39.7%	49%	88.8%	21%	58.8%	51.3%
Cc1cc(Nc2cc(N3CCN(C)CC3)nc(Sc3ccc(NC(=O)C4CC4)cc3)n2)n[nH]1 [Tozasertib] + C=CCNC1=C2C[C@@H](C)C[C@H](OC)[C@H](O)[C@@H](C)/C=C(\C)[C@H](OC(N)=O)[C@@H](OC)/C=C\C=C(/C)C(=O)NC(=CC1=O)C2=O [Tanespimycin] (first compound 0.006 µM, partner dose 0.002 µM)	98.3%	83.3%	110%	81.6%	87.8%	90.1%	98.2%	91.3%	91.2%	86.7%	92.6%	86%	72.7%	89.1%
Cc1cc(Nc2cc(N3CCN(C)CC3)nc(Sc3ccc(NC(=O)C4CC4)cc3)n2)n[nH]1 [Tozasertib] + COc1ccc(Cl)c(Nc2nc3ccccc3nc2NS(=O)(=O)c2cccc(NC(=O)C(C)(C)N)c2)c1 [XL147] (first compound 0.006 µM, partner dose 0.8 µM)	91.3%	84.6%	97.2%	84.7%	92%	97.6%	101%	90.5%	93.3%	90.1%	85.1%	84.5%	95.4%	81.9%
CC[C@]1(O)C[C@H]2CN(CCc3c([nH]c4ccccc34)[C@@](C(=O)OC)(c3cc4c(cc3OC)N(C=O)[C@H]3[C@@](O)(C(=O)OC)[C@H](OC(C)=O)[C@]5(CC)C=CCN6CC[C@]43[C@@H]65)C2)C1 [vincristine] + O=C(Nc1cc(C(F)(F)F)cc(C(F)(F)F)c1)c1cc(Cl)ccc1O [IMD0354] (first compound 0.0001 µM, partner dose 0.016 µM)	90.2%	79.4%	56.2%	70.8%	83.3%	102%	38.8%	53.1%	65.2%	44.3%	85%	53.9%	44.9%	48.7%
CC[C@]1(O)C[C@H]2CN(CCc3c([nH]c4ccccc34)[C@@](C(=O)OC)(c3cc4c(cc3OC)N(C=O)[C@H]3[C@@](O)(C(=O)OC)[C@H](OC(C)=O)[C@]5(CC)C=CCN6CC[C@]43[C@@H]65)C2)C1 [vincristine] + CCCS(=O)(=O)Nc1ccc(F)c(C(=O)c2c[nH]c3ncc(Cl)cc23)c1F [PLX4720] (first compound 0.0001 µM, partner dose 0.08 µM)	86.8%	71.9%	59.3%	79.8%	63.9%	87.3%	63.9%	50.7%	49.1%	47.3%	101%	62.5%	52%	61.5%
CC[C@]1(O)C[C@H]2CN(CCc3c([nH]c4ccccc34)[C@@](C(=O)OC)(c3cc4c(cc3OC)N(C=O)[C@H]3[C@@](O)(C(=O)OC)[C@H](OC(C)=O)[C@]5(CC)C=CCN6CC[C@]43[C@@H]65)C2)C1 [vincristine] + CS(=O)(=O)CCNCc1ccc(-c2ccc3ncnc(Nc4ccc(OCc5cccc(F)c5)c(Cl)c4)c3c2)o1 [lapatinib] (first compound 0.0001 µM, partner dose 0.8 µM)	82.9%	49%	44.8%	60.1%	49%	63.4%	43.2%	34.3%	41.7%	45.2%	82.6%	61.5%	46.8%	55.6%
Cc1cc(Nc2cc(N3CCN(C)CC3)nc(Sc3ccc(NC(=O)C4CC4)cc3)n2)n[nH]1 [Tozasertib] + Cn1nnc2c(C(N)=O)ncn2c1=O [temozolomide] (first compound 0.006 µM, partner dose 2 µM)	89.3%	88.9%	65.3%	103%	72.5%	86.9%	89.8%	71.5%	86.6%	75.2%	94.6%	78.3%	90.2%	87.1%
CC[C@]1(O)C[C@H]2CN(CCc3c([nH]c4ccccc34)[C@@](C(=O)OC)(c3cc4c(cc3OC)N(C=O)[C@H]3[C@@](O)(C(=O)OC)[C@H](OC(C)=O)[C@]5(CC)C=CCN6CC[C@]43[C@@H]65)C2)C1 [vincristine] + O=c1[nH]nc(Sc2ncc([N+](=O)[O-])s2)n1-c1ccc2c(c1)OCCO2 [BI78D3] (first compound 0.0001 µM, partner dose 0.2 µM)	89.2%	82.9%	74.7%	102%	103%	102%	62.2%	71.9%	67.1%	47.5%	97.1%	86.4%	57.7%	52.9%
